Assay results as given in patent publication US20250114430A1, “MODIFIED PEPTIDOMIMETICS AND METHODS OF USE” (The University of North Carolina at Chapel Hill, priority 2021, published 2025).

Description: ELD100 contained 16 residues. A series of peptides were generated including N-terminal, C-terminal and mid-peptide deletions to fully-optimize the peptide's size. […] Using this approach, a library was generated to fully optimize ELD100. […] The amino acid sequence modifications included alanine scanning, conservative mutations, shorter sequences and N- and C-terminus modifications (D-ala and Ser additions).

Sequence: DITLVHDIVNMLIHGL [ELD100, DITLVHDIVNMLIHGL]
- cleavage in CF patient sputum: cleaved after valines by neutrophil elastase

No end group written: not given here.
